Results taken from the supplement of paper PMC10126150.
Sequences with one replicate were seen in a single cluster, so their values are uncertain.

Tested on: ATP
Assay: switch fluorescence ratio, 500 uM ATP over buffer (Cy3 cluster intensity, sum of 5 cycles each) (fold (ratio)); higher = stronger signal-on switching upon ATP binding; sequences stand for … in TCGTCGGCAGCGTCAGATGTGTATAAGAGACAGTTTTTTTTTTTTTTTTTTTTTTTTT…TC
Details: aptamer strand: ATP DNA aptamer (quencher-CACCTGGGGGAGTATTGCGGAGGAAGG + anchor), 100 nM annealed; ATP concentration: 500 uM; one replicate
Method in brief: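 Imaging in selection buffer was followed by imaging after 15 min with 500 uM ATP at 22 °C, for Cy3-labelled switching-strand clusters annealed to 100 nM quencher-labelled ATP aptamer on a modified Illumina MiSeq flow-cell. Five of these buffer/ATP cycles ran, separated by NaOH stripping and re-annealing. The fluorescence ratio per cluster is summed target-cycle over summed buffer-cycle Cy3 intensity, averaged per switch-domain sequence; clusters outside 100-1000 RFU were removed.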
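Also: ATP exposure 15 min at 22 °C before imaging.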

| Sequence | switch fluorescence ratio |
| --- | --- |
| ACTTTCTGGT | 0.971 |
| GCCTGAATCC | 1.38 |
| GATGTTCTTG | 0.988 |
| TAGATCGCT | 0.978 |
| GAGCACTCGG | 1.01 |
| ACTTAAGGCT | 1.04 |
| ATCACGCCGG | 1.02 |
| TGGACTAAGT | 0.997 |
| GAGGAACTTT | 1.01 |
| AGTGCGAGT | 0.993 |
| CGGCATTCTC | 2.38 |
| TCAGGA | 1.05 |
| TGGACAGACC | 1.09 |
| GACTTTCGTC | 0.978 |
| TCTTGTGCA | 1.01 |
| TCACTGACCA | 1.2 |
| ATGGAGCTCG | 0.995 |
| CCTTATGAGA | 1.03 |
| CTTTGACAGC | 1.03 |
| CGCAGATATC | 1.59 |
| ACTGGAGTCA | 1.02 |
| GTTCAGACAG | 1 |
| CTATATCGAA | 1.04 |

| Sequence | switch fluorescence ratio |
| --- | --- |
| CCCCCGGTTC | 2.18 |
| CAGGGTTGGA | 0.994 |
| ATACTTGAAT | 0.975 |
| CGCTTTCTGA | 1.01 |
| ATATGTTAGC | 1.02 |
| GATGAAGAAG | 1.03 |
| GAGGGATCGA | 0.936 |
| ACGAGTCGGA | 1.03 |
| TTGCACTTGG | 1.01 |
| GTTTTCATTT | 0.969 |
| GGAAAAGGAC | 1.04 |
| TAATGGTAAC | 1.01 |
| GCTCACAGGC | 1.09 |
| GCTCGTCGCA | 0.998 |
| TCGTTGCTCT | 1.11 |
| GAATGCTCTT | 0.998 |
| TGGCTGAAAT | 1.21 |
| GCCCTACATC | 0.969 |
| TTCAGACCCA | 1.03 |
| ATCTCAGGTC | 0.997 |
| TCTTGCCCGC | 1.78 |
| GGTGGTCACT | 1.02 |
| CTGTCAACGT | 0.981 |

| Sequence | switch fluorescence ratio |
| --- | --- |
| CAGGTTAAG | 1.03 |
| CGGGACCGGG | 1.05 |
| AAAACAAGTG | 1.01 |
| AACTGTTCC | 1.23 |
| TAAGATCGGA | 0.946 |
| CACTCCAGAG | 1.06 |
| GTAATCGAAA | 1.03 |
| TGCATCGGGC | 1.01 |
| AAAAGATGAT | 1.02 |
| GCAGCGAACG | 1.19 |
| CTAATACCCG | 1.04 |
| AAAAACAATA | 0.971 |
| CGTTGGATGG | 1.01 |
| AGTCTCTGCC | 0.968 |
| ACACCAAGGG | 1 |
| GCTGTAATGA | 1.02 |
| CTTAGCGTGA | 1.05 |
| GCAATTATAG | 1.09 |
| GGGGGATAAT | 1.03 |
| CCTTGATCGA | 0.985 |
| TCGCACGGGC | 1.09 |
| AATTATACAG | 1.03 |
| ATTAGCGGAA | 0.991 |

| Sequence | switch fluorescence ratio |
| --- | --- |
| TGGCCTTCTT | 1.01 |
| GATTCATGCT | 0.986 |
| ACGGATGAC | 1.06 |
| AGTTGTACCG | 0.969 |
| CGACACGATG | 1.05 |
| ACATTTCGG | 0.993 |
| ATACATGGAG | 1.03 |
| ACTTTCTACT | 1.04 |
| GTCCTTCCCG | 2.42 |
| CCACTTTCAA | 1.04 |
| CTAGCTATTT | 1.03 |
| TAGGGGACGA | 1 |
| TAGCGCCCTG | 0.988 |
| CGATTCAATG | 1.13 |
| GTCTGGCGCA | 0.984 |
| TTTCCAGGAA | 1.55 |
| TGAGCTTC | 1.07 |
| TTAGGTGAAT | 1.02 |
| GATGCGCCCT | 0.979 |
| AGGACAGGCT | 0.983 |
| ACCTTAGAAT | 1.04 |
| GGTTATCGTC | 0.991 |
| GATTGATAAC | 1.08 |

| Sequence | switch fluorescence ratio |
| --- | --- |
| TTATCTCCAT | 0.975 |
| ACTTTCCACC | 1.17 |
| TTTTCCATCT | 1.02 |
| TAGTGCCCCT | 1.03 |
| TCGGTTGAAA | 0.95 |
| TAGCTTCCCC | 1.84 |
| TGTCACTCAC | 1.29 |
| AGTATGATAA | 0.993 |
| GCGGCGAGCG | 1.03 |
| AGCCTGGGTA | 0.987 |
| CTACGTGGGT | 0.993 |
| AGGTGAGTGG | 0.983 |
| GCTAAACGGT | 1.02 |
| TAGCTTGGAT | 0.994 |
| GTTTAATGAA | 1.01 |
| ATATATAAG | 0.97 |
| GAGGTATTGT | 0.932 |
| CGGTAAGCAG | 0.965 |
| GCATTCGGGT | 1.01 |
| CTGATATGAA | 0.978 |
| AATGGCGTGC | 0.994 |
| AAGAGGCCCT | 0.978 |
| GCTACTGCTG | 1.02 |

| Sequence | switch fluorescence ratio |
| --- | --- |
| TCAAAGCATT | 1.04 |
| TACAATTAAA | 0.997 |
| TTTTACGGA | 1.04 |
| ACGATGAGAA | 0.996 |
| GCGCTGAGGG | 0.986 |
| CTCTACGATC | 1.37 |
| ATTGCAACGG | 1.02 |
| ATTGGTGTGA | 0.992 |
| ACCGGAGACA | 1.19 |
| ATACTGGAAC | 1.07 |
| AGGGAGGGCA | 1.01 |
| GGCACAGTGT | 0.985 |
| CCTAAAACGA | 1.3 |
| GGCGGTTGTT | 0.99 |
| CAAAACTATT | 1 |
| CCGAATCC | 1.47 |
| AGCGATACCT | 1.37 |
| CATCGTGCGC | 1.02 |
| CATGTTGCCT | 0.981 |
| AGTGTCAAGC | 1.04 |
| TGACTCAACT | 1.05 |
| TACCAGAAT | 0.99 |
| GATTGGTCTC | 1.01 |

| Sequence | switch fluorescence ratio |
| --- | --- |
| GAAAGGCATG | 1.05 |
| CGTTGTCAGC | 1.01 |
| GCGCTTATCT | 1.05 |
| CGCTATGGTA | 0.996 |
| GCGAGTCCGG | 1.11 |
| CGACCAGGTT | 1.95 |
| GTCCTTCGGT | 0.987 |
| ATACTATTTC | 1.03 |
| TCGGTTAG | 1.01 |
| GGTGGAACTG | 0.975 |
| AGTAGTCACG | 0.945 |
| AGGGGTACGG | 0.996 |
| GATCGTATTT | 0.986 |
| TGCACTCTTG | 1.07 |
| GAGCTGTAAG | 0.977 |
| ACGAGGGGCT | 0.964 |
| TAATGAATGC | 1.05 |
| GTATTGACGG | 1.02 |
| CCCTCGCGTT | 1.65 |
